Source: PubChem BioAssay AID686979 (National Center for Advancing Translational Sciences (NCATS), 2013)
Several values for one entry are separate records, joined by “and”; a condition that tells them apart may be missing. Equal entries are not always repeated. The campaign covered roughly 420,000 compounds. About 50,000 (12%) were called active. This list was built around the results that the source calls inconclusive (neither active nor inactive); the mix of calls is not that of the screen. Calls follow the shape of the dose curve; as a rule, active = well fitted inhibition curve with a large enough effect; inconclusive = small, poorly fitted or top-dose-only effect; inactive = flat fitted curve, though single readings scatter. No potency is given beside an inconclusive call; the fits are too rough. Some compounds were tested as several samples or in several runs, with calls that do not always agree.

experiment: qHTS for Inhibitors of human tyrosyl-DNA phosphodiesterase 1 (TDP1): qHTS in cells in presence of CPT; details: chicken DT40 Tdp1-/-;hTDP1 cells + 20 nM CPT, ATP luminescence, 48 h; series mostly up to 46.2 µM; also: nearly all actives have a fitted effect of over 55% in size
In short: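 Chicken DT40 Tdp1-/- cells complemented with human TDP1, 400 cells/well, exposed to compounds plus 20 nM camptothecin for at least 48 h at 37 C; viability read as ATP content by CellTiter-Glo luminescence.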
Potency is read from the fitted curve at half-maximal effect; tags tell the direction and shape of the fitted curve.

Compound | Potency
O=C(NC(=S)Nc1cccnc1Cl)c1ccc(F)cc1 | inactive
CSc1cccc(NC(=O)/C=C/c2ccc(Cl)cc2)c1 | inconclusive [inhibitor, single point]
CCCCSc1nnc2c(n1)OC(c1ccc(C)s1)Nc1ccccc1-2 (stereo unspecified) | active: 18.4 µM
N#C/C(=C\c1cc(Cl)ccc1O)C(=O)NC1CCCCC1 | inconclusive [inhibitor, single point]
O=C(NCc1ccccc1Cl)c1cccc(NC(=O)c2ccccc2)c1 | inactive
O=C(Nc1ccc(S(=O)(=O)N2CCc3ccccc3C2)cc1)c1ccccc1 | inconclusive [inhibitor, partial curve]
COc1ccc(CNC(=O)C2Cc3c(-c4cccc(F)c4)ccnc3O2)cc1OC (stereo unspecified) | active: 8.2 µM
CCOc1ccc(N(CC(=O)Nc2ccc(C)cc2)S(=O)(=O)c2c(C)noc2C)cc1 | inconclusive [inhibitor, partial curve]
Cc1nc2ccc(NC(=O)CCS(=O)(=O)c3ccc(Cl)cc3)cc2s1 | active: 11.6 µM
O=C1c2ccc3c4c(ccc(c24)C(=O)N1c1ccc2ccccc2c1)CC3 | inconclusive [inhibitor, full curve]
CCCSc1ccc(-c2nn(-c3ccccc3)cc2/C=C(/C#N)C(=O)N2CCOCC2)cc1 | inconclusive [inhibitor, single point]
COc1ccc(-c2cn3c(n2)sc2cc(C(=O)N4CCCCC4)ccc23)cc1 | inconclusive [inhibitor, single point]
CCCN(C(=O)c1cn(CC(C)C)c(=O)c2cc(OC)c(OC)cc12)c1cccc(C)c1 | active: 13 µM
CCOc1ccc(-c2nnn(CC(=O)Nc3cccc(OC)c3)n2)cc1OCC | inconclusive [inhibitor, single point]
Cc1ccccc1C(=O)N/N=C/c1ccc(OCC(=O)N2CCCCC2)cc1 | inactive
COc1ccccc1NC(=O)c1ccc(Cl)c(S(=O)(=O)N2CCCCC2)c1 | inconclusive [inhibitor, single point]
CCS(=O)(=O)N1CC(=O)N(c2ccc(C)c(C)c2)C(C)(C(=O)NC2CCCCCC2)C1 (stereo unspecified) | inconclusive [inhibitor, partial curve]
O=C1c2cc(Cl)ccc2OC2(CCNCC2)C12CC(c1ccc(Cl)cc1)=NO2 (stereo unspecified) | active: 18.4 µM
COc1cc(O)c2c(=O)c(-c3ccc(O[C@@H]4O[C@H](CO)[C@@H](O)[C@H](O)[C@H]4O)cc3)coc2c1 | inactive
COc1cccc(-n2nnnc2SCC(=O)Nc2nc3c(s2)CCCC3)c1 | inconclusive [inhibitor, single point]
COc1cc(-c2nn3c(-c4cccnc4)nnc3s2)cc(OC)c1OC | inconclusive [inhibitor, full curve]
CCOC(=O)C1CCN(C(=O)CC(C)c2ccccc2)CC1 (stereo unspecified) | active: 18.4 µM
COc1ccc(N2CC(NC(=O)Cc3cccs3)CC2=O)cc1OC (stereo unspecified) | inactive

Compound | Potency
Cc1ccc(O)c(C(=O)c2cc(C#N)c(=O)n(CC3CCCO3)c2)c1 (stereo unspecified) | active: 14.6 µM
N#CC1=C(N)n2c(s/c(=C\c3cccs3)c2=O)=C(C#N)C1c1cccs1 (stereo unspecified) | inactive
Cc1cc(OCc2cc(C(=O)N(C)C3CCOC3)no2)cc(C)c1Cl (stereo unspecified) | active: 16.4 µM
O=C(O)c1cccc(Nc2ccnc(Nc3cccc(C(=O)O)c3)n2)c1 | inactive
COc1ccc(NC(=O)CN(C)S(=O)(=O)c2cccc3cccnc23)cc1 | inconclusive [inhibitor, partial curve, poor fit]
O=c1[nH]c(C2CCN(S(=O)(=O)Cc3ccccc3)CC2)nc2c1nnn2Cc1ccccc1 | inconclusive [inhibitor, single point]
C#CCN(C[C@@H]1[C@@H](OC(=O)NCc2ccccc2F)[C@@H](OC(=O)NCc2ccccc2F)CN(C(=O)OC(C)C)N1C(=O)OC(C)C)S(=O)(=O)c1ccc(C)cc1 | active: 7.31 µM
Cc1ccc(C)c(N2CCN(C(=O)C3CCCN(S(=O)(=O)c4cnc[nH]4)C3)CC2)c1 (stereo unspecified) | inconclusive [inhibitor, single point]
Nc1nnc(-c2ccc(F)cc2)s1 | inconclusive [inhibitor, partial curve, poor fit]
CC(CNC(=O)Cn1ccc(N)nc1=O)c1ccccc1 (stereo unspecified) | inactive
CN1C(C)(C)CC(O)(C(=O)O)CC1(C)C | inactive
Cc1ccc2nc(=O)c(NNc3ccccc3)cnc2c1 | inconclusive [inhibitor, single point]
CC1CN(CC(O)COc2ccc(C#N)cc2)CCN1CC(O)COc1ccc(C#N)cc1 (stereo unspecified) | active: 20.6 µM
Cc1ccc(-c2cccc(C3CC=CC4C3C(=O)N(Cc3ccccc3)C4c3ccc4ccccc4c3)c2)cc1 (stereo unspecified) | active: 18.4 µM
Cc1ccc(S(=O)(=O)N2CCN(C(=O)Cn3c(=O)cnc4ccccc43)CC2)c(C)c1 | inconclusive [inhibitor, single point]
Cc1ccc(-c2nc(CNC(=O)c3ccco3)cs2)cc1 | inconclusive [inhibitor, single point]
CCCCNS(=O)(=O)c1ccc2nc(-c3cccnc3)cc(C(=O)NCCCOCC)c2c1 | inactive
COC(=O)[C@@]12C[C@@H](CC(=O)NCCC(C)C)C(=O)N(Cc3ccco3)C1=CCC(C)(C)C2 | inconclusive [inhibitor, single point]
CCc1nnc(NC(=O)CCC(=O)NCc2ccccc2OC)s1 | inconclusive [inhibitor, single point]
O=C(CCCCC(=O)NCCCc1ccccc1)NCCCc1ccccc1 | inactive
CCN1/C(=C/C(C)=O)Sc2ccc(OC)cc21 | active: 11.2 µM and active: 7.08 µM
Cc1ccccc1C(=O)N1CCC(C(=O)Nc2nc3ccc(F)cc3s2)CC1 | inconclusive [inhibitor, single point]
COc1cccc(CN(C)C(=O)CC23CC4CC(CC(C4)C2)C3)c1OC | inconclusive [inhibitor, single point]
